Assay results from the supplement of paper PMC8728848.
The other results are listed elsewhere or left out.

Assays:
Assay in all cases: glycan array binding signal (z-score within array); higher = stronger binding
Details in all cases: glycan notation: IUPAC condensed, linker removed; mutation: E227A
[1] = target: Gal(b1-4)GlcNAc(b1-3)Gal(b1-4)GlcNAc(b1-2)Man(a1-3)[Gal(b1-4)GlcNAc(b1-3)Gal(b1-4)GlcNAc(b1-2)Man(a1-6)]Man(b1-4)GlcNAc(b1-4)[Fuc(a1-6)]GlcNAc
Summary of the method: (§1)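 Glycan array data were curated from 3228 arrays in the Consortium for Functional Glycomics database and kept only where the protein sequence was available. Glycan names were converted to IUPAC-condensed notation, and columns mapping to the same glycan were averaged. The binding signal is a within-array Z-score, averaged across arrays of the same protein sequence at different concentrations or buffers and across linkers. Negative Z-scores can be read as non-binding.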

[2] = target: Gal(b1-4)GlcNAc(b1-3)Gal(b1-4)GlcNAc(b1-2)[Gal(b1-4)GlcNAc(b1-3)Gal(b1-4)GlcNAc(b1-6)]Man(a1-6)[Gal(b1-4)GlcNAc(b1-3)Gal(b1-4)GlcNAc(b1-2)Man(a1-3)]Man(b1-4)GlcNAc(b1-4)GlcNAc
Summary of the method: as §1

[3] = target: Gal(b1-4)GlcNAc(b1-3)Gal(b1-4)GlcNAc(b1-2)[Gal(b1-4)GlcNAc(b1-3)Gal(b1-4)GlcNAc(b1-6)]Man(a1-6)[Gal(b1-4)GlcNAc(b1-3)Gal(b1-4)GlcNAc(b1-2)Man(a1-3)]Man(b1-4)GlcNAc(b1-4)[Fuc(a1-6)]GlcNAc
Summary of the method: as §1

[4] = target: Gal(b1-4)GlcNAc(b1-3)Gal(b1-4)GlcNAc(b1-3)Gal(b1-4)GlcNAc
Summary of the method: as §1

[5] = target: Gal(b1-4)GlcNAc(b1-3)Gal(b1-4)GlcNAc(b1-3)Gal(b1-4)GlcNAc(b1-2)Man(a1-3)[Gal(b1-4)GlcNAc(b1-3)Gal(b1-4)GlcNAc(b1-3)Gal(b1-4)GlcNAc(b1-2)Man(a1-6)]Man(b1-4)GlcNAc(b1-4)GlcNAc
Summary of the method: as §1

[6] = target: Gal(b1-4)GlcNAc(b1-3)Gal(b1-4)GlcNAc(b1-3)Gal(b1-4)GlcNAc(b1-2)Man(a1-3)[Gal(b1-4)GlcNAc(b1-3)Gal(b1-4)GlcNAc(b1-3)Gal(b1-4)GlcNAc(b1-2)Man(a1-6)]Man(b1-4)GlcNAc(b1-4)[Fuc(a1-6)]GlcNAc
Summary of the method: as §1

[7] = target: Gal(b1-4)GlcNAc(b1-3)Gal(b1-4)GlcNAc(b1-3)Gal(b1-4)GlcNAc(b1-2)[Gal(b1-4)GlcNAc(b1-3)Gal(b1-4)GlcNAc(b1-3)Gal(b1-4)GlcNAc(b1-6)]Man(a1-6)[Gal(b1-4)GlcNAc(b1-3)Gal(b1-4)GlcNAc(b1-3)Gal(b1-4)GlcNAc(b1-2)Man(a1-3)]Man(b1-4)GlcNAc(b1-4)[Fuc(a1-6)]GlcNAc
Summary of the method: as §1

[8] = target: Gal(b1-4)GlcNAc(b1-3)Gal(b1-4)GlcNAc(b1-3)Gal(b1-4)GlcNAc(b1-3)Gal(b1-4)GlcNAc(b1-2)Man(a1-3)[Gal(b1-4)GlcNAc(b1-3)Gal(b1-4)GlcNAc(b1-3)Gal(b1-4)GlcNAc(b1-3)Gal(b1-4)GlcNAc(b1-2)Man(a1-6)]Man(b1-4)GlcNAc(b1-4)GlcNAc
Summary of the method: as §1

[9] = target: Gal(b1-4)GlcNAc(b1-3)Gal(b1-4)GlcNAc(b1-3)Gal(b1-4)GlcNAc(b1-3)Gal(b1-4)GlcNAc(b1-2)Man(a1-3)[Gal(b1-4)GlcNAc(b1-3)Gal(b1-4)GlcNAc(b1-3)Gal(b1-4)GlcNAc(b1-3)Gal(b1-4)GlcNAc(b1-2)Man(a1-6)]Man(b1-4)GlcNAc(b1-4)[Fuc(a1-6)]GlcNAc
Summary of the method: as §1

[10] = target: Gal(b1-4)GlcNAc(b1-3)Gal(b1-4)GlcNAc(b1-3)Gal(b1-4)GlcNAc(b1-3)Gal(b1-4)GlcNAc(b1-2)[Gal(b1-4)GlcNAc(b1-3)Gal(b1-4)GlcNAc(b1-3)Gal(b1-4)GlcNAc(b1-3)Gal(b1-4)GlcNAc(b1-6)]Man(a1-6)[Gal(b1-4)GlcNAc(b1-3)Gal(b1-4)GlcNAc(b1-3)Gal(b1-4)GlcNAc(b1-3)Gal(b1-4)GlcNAc(b1-2)Man(a1-3)]Man(b1-4)GlcNAc(b1-4)[Fuc(a1-6)]GlcNAc
Summary of the method: as §1

[11] = target: Gal(b1-4)GlcNAc(b1-3)Gal(b1-4)GlcNAc(b1-3)Gal(b1-4)GlcNAc(b1-3)Gal(b1-4)GlcNAc(b1-3)Gal(b1-4)GlcNAc(b1-2)Man(a1-3)[Gal(b1-4)GlcNAc(b1-3)Gal(b1-4)GlcNAc(b1-3)Gal(b1-4)GlcNAc(b1-3)Gal(b1-4)GlcNAc(b1-3)Gal(b1-4)GlcNAc(b1-2)Man(a1-6)]Man(b1-4)GlcNAc(b1-4)GlcNAc
Summary of the method: as §1

[12] = target: Gal(b1-4)GlcNAc(b1-3)Gal(b1-4)GlcNAc(b1-3)Gal(b1-4)GlcNAc(b1-3)Gal(b1-4)GlcNAc(b1-3)Gal(b1-4)GlcNAc(b1-2)Man(a1-3)[Gal(b1-4)GlcNAc(b1-3)Gal(b1-4)GlcNAc(b1-3)Gal(b1-4)GlcNAc(b1-3)Gal(b1-4)GlcNAc(b1-3)Gal(b1-4)GlcNAc(b1-2)Man(a1-6)]Man(b1-4)GlcNAc(b1-4)[Fuc(a1-6)]GlcNAc
Summary of the method: as §1

[13] = target: Gal(b1-4)GlcNAc(b1-3)Gal(b1-4)GlcNAc(b1-3)Gal(b1-4)GlcNAc(b1-3)Gal(b1-4)GlcNAc(b1-3)Gal(b1-4)GlcNAc(b1-2)[Gal(b1-4)GlcNAc(b1-3)Gal(b1-4)GlcNAc(b1-3)Gal(b1-4)GlcNAc(b1-3)Gal(b1-4)GlcNAc(b1-3)Gal(b1-4)GlcNAc(b1-6)]Man(a1-6)[Gal(b1-4)GlcNAc(b1-3)Gal(b1-4)GlcNAc(b1-3)Gal(b1-4)GlcNAc(b1-3)Gal(b1-4)GlcNAc(b1-3)Gal(b1-4)GlcNAc(b1-2)Man(a1-3)]Man(b1-4)GlcNAc(b1-4)[Fuc(a1-6)]GlcNAc
Summary of the method: as §1

[14] = target: Gal(b1-4)GlcNAc(b1-3)Gal(b1-4)GlcNAc(b1-3)Gal(b1-4)GlcNAc(b1-3)Gal(b1-4)GlcNAc(b1-3)Gal(b1-4)GlcNAc(b1-3)Gal(b1-4)GlcNAc(b1-2)Man(a1-3)[Gal(b1-4)GlcNAc(b1-3)Gal(b1-4)GlcNAc(b1-3)Gal(b1-4)GlcNAc(b1-3)Gal(b1-4)GlcNAc(b1-3)Gal(b1-4)GlcNAc(b1-3)Gal(b1-4)GlcNAc(b1-2)Man(a1-6)]Man(b1-4)GlcNAc(b1-4)GlcNAc
Summary of the method: as §1

[15] = target: Gal(b1-4)GlcNAc(b1-3)Gal(b1-4)GlcNAc(b1-3)GalNAc
Summary of the method: as §1

[16] = target: Gal(b1-4)GlcNAc(b1-3)Gal(b1-4)GlcNAc(b1-3)[Gal(b1-4)GlcNAc(b1-3)Gal(b1-4)GlcNAc(b1-6)]GalNAc
Summary of the method: as §1

[17] = target: Gal(b1-4)GlcNAc(b1-3)Gal(b1-4)GlcNAc(b1-6)[Gal(b1-3)]GalNAc
Summary of the method: as §1

[18] = target: Gal(b1-4)GlcNAc(b1-3)Gal(b1-4)[Fuc(a1-3)]GlcNAc(b1-3)Gal(b1-4)[Fuc(a1-3)]GlcNAc
Summary of the method: as §1

[19] = target: Gal(b1-4)GlcNAc(b1-3)GalNAc
Summary of the method: as §1

[20] = target: Gal(b1-4)GlcNAc(b1-3)[Fuc(a1-3)GlcNAc(b1-6)]Gal(b1-4)Glc
Summary of the method: as §1

[21] = target: Gal(b1-4)GlcNAc(b1-3)[Gal(b1-4)GlcNAc(b1-6)]Gal(b1-4)GlcNAc
Summary of the method: as §1

[22] = target: Gal(b1-4)GlcNAc(b1-3)[GlcNAc(b1-6)]Gal(b1-4)GlcNAc
Summary of the method: as §1

[23] = target: Gal(b1-4)GlcNAc(b1-6)Gal(b1-4)GlcNAc
Summary of the method: as §1

[24] = target: Gal(b1-4)GlcNAc(b1-6)GalNAc
Summary of the method: as §1

[25] = target: Gal(b1-4)GlcNAc(b1-6)[Gal(b1-3)]GalNAc
Summary of the method: as §1

[26] = target: Gal(b1-4)GlcNAc(b1-6)[Gal(b1-4)GlcNAc(b1-3)]GalNAc
Summary of the method: as §1

Gal(b1-4)GlcNAc6P = target: Gal(b1-4)GlcNAc6P
Summary of the method: as §1

Gal(b1-6)Gal = target: Gal(b1-6)Gal
Summary of the method: as §1

Gal3S(b1-3)GalNAc = target: Gal3S(b1-3)GalNAc
Summary of the method: as §1

Gal3S(b1-3)GlcNAc = target: Gal3S(b1-3)GlcNAc
Summary of the method: as §1

B1: Epa1-NP-mutant-E227A (Candida glabrata), Q6VBJ0 (protein)
chain: MILNPALFLNKCVCIYTTLILLLLTNGGYATSSNDISLASKDPTTFPLGCSPDITTPKKGLSMELYSYDFRKKGSYPCWDAAYLDPNYPRTGYKSHRLLAKVDGVTGNINFYYHATKGCTPQLGHLPASYNYPKPLTMTNFTMLLYGYFRPKVTGFHTFTISADDLLFVNFGAGNAFDCCRRDSSADHFGNYQAYAIWGSKTAKDELTVHLDAGVYYPIRLFYNNRAYDGALSFTFKTESNENTVSDFSEYFFSLDDTEEGCPGLISYDSSCASVKTSKIIGIDYHTETPNENLVPITKTIYHLGIPCTGTTTTPLCGSGFYDPLANKCVTINTSSTSSVTKTTSHTTSKEVSFHSSISSQKTLIPKSIPSPYGPIKSQSIPTEMETSSEISSSEYAFSDVISTPSHSPYTKKHSSLNSSSYTSTVIHSLTSYSISQGIFSTSLSEQNITSKSSTDKFSTATSMSNNITQSSIIISQFSTNNENYTTTSMHTSSDKISTETLNNSISTTTSILFSNSSTILKNNTTIISSDKDTHYHPVNPTIVCSTNKTEIICASITQPSISNSNNHWSSSVLKFNSTTVRSTLPSSAGSNETSINVPFSSSTESNTSTSSTSTSNSKMVRSTLPSSAGSNETSISVPFSSSTESNTSTSSTSTSNSKMVRSTLPSSAGSNETSINVPFSSSTESNTSTSSTSTSNSKTVRSTPFSSAGIIMTSLSQRNNKSASSYASSNSKCYNTADSCRKVHSTPSYLLTSSYTSEGVDYDCSLVSTKLKINDTNCVNNKHTTKSCLKTSVTTTIPTLEIKTARKSSSNTIGLHSYPTSSPNKSISSAPIIGYISSFKTIKTASPSYQTSDLTTITTITSLNNPGSTAVENTHESNDKSRKTSSNDISSKHSVIKETKDAVESSNKSHQTNTLKCSSIIIASSSHNSYESLGGTTLTLTLSKVYSPQNNDTLPFLEISEVNPSRTVLPESSKMMQYLTSTEERNKTARNTIATNIVSISTFHFEGEGNAIRMGYTQLLLMLIGIIVMNIGT
glycan array binding signal (z-score) [1]: 0.401
glycan array binding signal (z-score) [2]: 0.503
glycan array binding signal (z-score) [3]: 0.946
glycan array binding signal (z-score) [4]: -0.129
glycan array binding signal (z-score) [5]: 0.626
glycan array binding signal (z-score) [6]: 1.09
glycan array binding signal (z-score) [7]: 1.15
glycan array binding signal (z-score) [8]: 0.273
glycan array binding signal (z-score) [9]: 0.133
glycan array binding signal (z-score) [10]: 0.612
glycan array binding signal (z-score) [11]: 0.394
glycan array binding signal (z-score) [12]: 0.34
glycan array binding signal (z-score) [13]: 0.802
glycan array binding signal (z-score) [14]: 0.127
glycan array binding signal (z-score) [15]: -0.164
glycan array binding signal (z-score) [16]: 0.017
glycan array binding signal (z-score) [17]: 0.755
glycan array binding signal (z-score) [18]: -0.199
glycan array binding signal (z-score) [19]: -0.169
glycan array binding signal (z-score) [20]: -0.198
glycan array binding signal (z-score) [21]: 0.242
glycan array binding signal (z-score) [22]: 0.188
glycan array binding signal (z-score) [23]: 0.869
glycan array binding signal (z-score) [24]: 0.099
glycan array binding signal (z-score) [25]: 1.27
glycan array binding signal (z-score) [26]: 0.261
glycan array binding signal (z-score) (Gal(b1-4)GlcNAc6P): -0.19
glycan array binding signal (z-score) (Gal(b1-6)Gal): -0.133
glycan array binding signal (z-score) (Gal3S(b1-3)GalNAc): -0.18
glycan array binding signal (z-score) (Gal3S(b1-3)GlcNAc): -0.208
